# Source: US20220049002A1 (KINDRED BIOSCIENCES, published 2022)
# T1: Canine IL13_C-His6 (processed) (canine, UniProt Q9N0W9 19-131)
# T1 sequence: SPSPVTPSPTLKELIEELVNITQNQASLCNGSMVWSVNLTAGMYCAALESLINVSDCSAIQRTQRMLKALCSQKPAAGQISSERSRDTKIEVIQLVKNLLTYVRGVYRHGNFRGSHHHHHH
# T2: Canine IL4_C-His6 (processed) (canine, UniProt O77762 25-131, biotinylated in the blocking ELISA of Example 2)
# T2 sequence: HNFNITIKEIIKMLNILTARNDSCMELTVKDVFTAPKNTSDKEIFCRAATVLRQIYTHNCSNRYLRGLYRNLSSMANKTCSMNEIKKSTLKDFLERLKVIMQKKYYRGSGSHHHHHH
# Key:
# [1] = molecular target: T1, Canine IL13_C-His6 (processed); assay: BLI (Octet): m4 on anti-human Fc tips, canine IL13_C-His6 50 ug/mL
# Method: (§1) Various binding analyses of Clone B, Clone I, canine IL4, and canine IL13 ligands to canine IL4R were performed using an Octet Biosensor. Canine IL4R-ECD_C-HuFc_His6 (SEQ ID NO: 109) was captured on anti-human Fc-bound sensor tips. The association of Clone B or Clone I antibody (25 μg/mL) and canine IL4R-ECD_C-HuFc_His6 was monitored for 600 seconds. The complex-bound tips were washed briefly and then exposed to canine IL4_C-His6 (SEQ ID NO: 127; 50 μg/mL) or canine IL13_C-His6 (SEQ ID NO: 157; 50 μg/mL) and monitored for 600 seconds.
# (§2) The opposite binding assay was also performed. The association between canine IL4_C-His6 (SEQ ID NO: 127; 50 μg/mL) or canine IL13_C-His6 (SEQ ID NO: 157; 50 μg/mL) and canine IL4R-ECD_C-HuFc_His6 captured on anti-human Fc-bound sensor tips was monitored for 600 seconds. The complex-bound tips were washed briefly and then exposed to Clone B antibody (50 μg/mL) or Clone I antibody (50 μg/mL) and monitored for 600 seconds. Following IL4 and IL13 binding to IL4R (FIG. 3C and FIG. 3D, respectively), further association with Clone B or Clone I was observed.
# [2] = molecular target: T2, Canine IL4_C-His6 (processed); assay: BLI (Octet): m4 on anti-human Fc tips, canine IL4_C-His6 50 ug/mL
# Method: as §1, §2
binder,measurement,setting,value
Canine IL4R-ECD_C-HuFc_His6 (processed) (Fc fusion) GSVKVLHEPSCFSDYISTSVCQWKMDHPTNCSAELRLSYQLDFMGSENHTCVPENREDSVCVCSMPIDDAVEADVYQLDLWAGQQLLWSGSFQPSKHVKPRTPGNLTVHPNISHTWLLMWTNPYPTENHLHSELTYMVNVSNDNDPEDFKVYNVTYMGPTLRLAASTLKSGASYSARVRAWAQTYNSTWSDWSPSTTWLNYYEPGSENLYFQ[human IgG1 Fc and a few adjoining residues omitted],binding result,[1],binds
same,binding result,[2],binds
